Measurements from PubChem BioAssay AID624296 (National Center for Advancing Translational Sciences (NCATS), 2012).
The campaign covered roughly 350,000 compounds. About 9,900 (2.8%) were called active. The inconclusive results got no clear call from the source; some entries with a clear call stand among them for comparison. The call rests on the fitted dose curve; in most records, active means well fitted activation curve with a large enough effect; inconclusive means small, poorly fitted or top-dose-only effect; inactive means no such curve, though single readings can be large or run the other way. No potency is given beside an inconclusive call; the fits are too rough.

Experiment: A quantitative high throughput screen for small molecules that induce DNA re-replication in MCF 10a normal breast cells. Further: nearly all actives have a fitted effect of over 50% in size. On activity, positive = re-replication: % of control where 0% means no effect.
Settings: MCF 10A DNA re-replication, Hoechst nuclear intensity, 48 h; activity, positive = re-replication: at 46.1 µM (top of the series)
From the text: H Molecular Libraries Probe Production Network [MLPCN]
NIH Chemical Genomics Center [NCGC]
Assay Provider: Melvin DePamphilis, NICHD, NIH
Eukaryotic cells normally restrict genome duplication to once per cell division. When this process is aberrant, DNA re-replication occurs when cells reinitiate DNA replication before the first round of replication is complete. DNA re-replication induces the DNA damage response, arrests cell proliferation, and triggers apoptosis. The cell cycle components cyclin A, Cdt-1, Cdc6 and geminin are critical regulators of this process and their misregulation results in DNA re-replication in normal and cancer cells. To identify compounds that induce re-replication in normal cells, an image-based assay was used to measure DNA content of nuclei, as detected by the fluorescent DNA binding dye, Hoechst. Cell nuclei were imaged by a fluorescence scanning plate imager and compounds that induce DNA re-replication were identified by the increase of nuclei with elevated fluorescence intensity
For screening, 250 cells in 5 uL/well were dispensed into black clear 1536-well plates (Aurora) using a solenoid-based dispenser. Following transfer of 23 nL compound or DMSO vehicle by a pin tool, the plates were incubated 48 hr at 37 C and 5% CO2. After addition of 1 uL/well Hoescht stain, the plates were incubated 40 min at 37 C, 5% CO2 and total intensity of fluorescent objects (nuclei) were enumerated by an Acumen Explorer Ex3 (TTP LabTech) fluorescence scanning plate imager (405 nm excitation, 500-530 nm emission).
Keywords: NIH Roadmap, MLPCN, MLI, MLSMR, qHTS, NCGC, DNA replication, cancer
Potency means the concentration at half of the fitted maximal effect; tags describe the fitted curve by direction and shape.

SMILES	Potency	activity, positive = re-replication
O=C(CCc1ccc(O)cc1)NNC(=S)NCCc1ccccc1	inconclusive [activator, partial curve]	
Cc1cc(CN2CCCC(CNC(=O)c3ccc(F)cc3)C2)cc(C)c1O (stereo not drawn)	active: 23.1 µM	
O=C(Cc1cccc(C(F)(F)F)c1)Nc1cc(S(=O)(=O)N2CCOCC2)ccc1N1CCCC1	inconclusive [activator, single point]	
COc1ccc(/C=C/C(=O)c2ccc(Cl)s2)cc1O	inconclusive [activator, single point]	
COc1ccc(Cl)cc1NC(=O)CN(C)C(=O)c1cc2c(s1)CCCC2	inconclusive [activator, single point]	
COC(=O)C(Cc1ccccc1)OS(N)(=O)=O (stereo not drawn)		inactive: 3.96%
Cc1ccc(C)c(S(=O)(=O)N2CCCCC2CCNC(=O)C(=O)NC2CCCC2)c1 (stereo not drawn)	inconclusive [activator, partial curve, poor fit]	
NS(=O)(=O)c1ccc(CCNC(=O)CCCn2c(=O)[nH]c3ccc(Br)cc3c2=O)cc1	inconclusive [activator, single point]	
COC(=O)[C@H](Cc1ccccc1)NC(=O)Cn1cnc2c(OCc3ccccc3)ncnc21	inconclusive [activator, partial curve, poor fit]	
COc1ccccc1NC(=O)CSCc1ccc([N+](=O)[O-])cc1		inactive: -8.19%
COc1ccc(CCNc2oc(COc3ccccc3F)nc2C#N)cc1OC		inactive: -1.01% [at 9.22 µM]
Cc1ccc(S(=O)(=O)N(c2nc(NC(C)C)nc(NC(C)C)n2)n2cnnc2)cc1		inactive: 0.137%
CC(C)C[C@@H](CN1CCCC1CN1C(=S)NC[C@@H]1Cc1ccc(O)cc1)N1C[C@H](Cc2ccc(O)cc2)N(CC2CCCCCC2)C1=S (stereo partly drawn)	inconclusive [activator, single point]	
CN(CCc1ccccn1)C(=O)CCC1CCCN(C(=O)c2ccsc2)C1 (stereo not drawn)		inactive: 3.33%
CC(C)C1=NN(C(=O)c2cccnc2)C(O)(C(F)(F)F)C1 (stereo not drawn)	inconclusive [activator, partial curve, poor fit]	
CC(=O)Nc1ccc(C(=O)COC(=O)CCc2ccccc2)c(F)c1	inconclusive [activator, single point]	
COC(=O)c1nn(-c2ccc(OC)cc2)c(=O)cc1Sc1ccc(C)cc1	inconclusive [activator, single point]	
O=C(CCN1C(=O)/C(=C\C=C\c2ccccc2)SC1=S)Nc1cccc(C(=O)O)c1	inconclusive [activator, single point]	
